# Some of the results follow. Cleavage of a single-stranded DNA pool by Rep nickase domains was read by sequencing (3 µM enzyme, 1 h, 37 °C); shown is the middle of each 90-letter strand. Values are log2 of uncut reads against the no-enzyme pool; strong cutting gives strongly negative numbers. There is no active / inactive call. Because reads are shares of a total, they shift together; where an enzyme cuts many sequences, the uncut ones exceed 0.
# System: T1, Rep nickase domain of tomato golden mosaic virus
# T1 sequence (residues 1-124, tag not shown): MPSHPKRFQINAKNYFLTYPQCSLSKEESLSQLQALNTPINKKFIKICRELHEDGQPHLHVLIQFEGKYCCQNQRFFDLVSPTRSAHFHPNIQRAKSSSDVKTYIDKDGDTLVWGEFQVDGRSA
# Test: uncleaved DNA left, log2 of reads against the no-enzyme library (log2 ratio); higher = less cleavage (more negative = more Rep cleavage of the k-mer); sequences stand for … in CTCGTCCG…ACCGGAGA
# Procedure: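 A pool of 90-nt single-stranded DNAs with seven random bases just before the constant AC of the nick site (name = the seven bases) was cut by 3 µM recombinant His6-SUMO-tagged Rep nickase domain (300 nM DNA, 50 mM HEPES pH 8.0, 50 mM NaCl, 1 mM MnCl2, 1 h, 37 °C, three replicates). Uncut DNA was amplified and sequenced.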
row,Sequence,uncleaved DNA left (log2)
1,CGTCATT,-0.0846
2,TCTTCCC,-0.25
3,GATTGTT,-0.695
4,AGGCACA,0.113
5,TTCGCTG,-0.00228
6,ACAAGAC,-0.0023
7,AATTTGT,-0.056
8,ACATAGT,-0.0413
9,GCAACGA,-0.049
10,GTAACCT,0.0455
11,CGCCGAG,0.0815
12,CGACTCC,-0.112
13,TGACTTC,-0.0778
14,ACCGCTC,-0.0792
15,GATTTAG,-0.0417
16,GCAATCG,0.0155
17,CACCATG,-0.0688
18,TAGGCGC,-0.0831
19,AATTTGC,-0.106
20,TGAATAC,0.124

row,Sequence,uncleaved DNA left (log2)
1,ATTGGTC,-0.13
2,TGTTCGG,0.0091
3,GGAATCT,0.0929
4,CGTCCTA,-0.0897
5,CTCTATG,0.0158
6,CGCTCGC,-0.0214
7,CAATTTT,-4.32
8,TTCATGC,-0.062
9,GATTGGA,0.147
10,GCAACGG,0.0971
11,TAATTGT,-4.17
12,GTTCTCG,0.125
13,GTGTCTC,0.0691
14,GGTAACT,0.00166
15,ACTTGCA,-0.0647
16,TAGGAAT,0.127
17,CTAAAGG,0.045
18,ATTATTC,0.0185
19,TGTCGCC,0.0239
20,GCGATTT,0.162
